# In PubChem BioAssay AID485344 (National Center for Advancing Translational Sciences (NCATS), 2010):
# The whole screen tested about 340,000 compounds, of which about 6,900 (2%) were called active. Rule as the data show it: active = inhibition above about 30%; inactive = below that, where a call was filed. The list shows a part of the results, in another mix than the full data. Where no call is shown, the source filed none.
# Molecular target: D(2) dopamine receptor (Homo sapiens) (UniProt P14416)
# Chain of UniProt P14416 (P14416 whole entry, looked up): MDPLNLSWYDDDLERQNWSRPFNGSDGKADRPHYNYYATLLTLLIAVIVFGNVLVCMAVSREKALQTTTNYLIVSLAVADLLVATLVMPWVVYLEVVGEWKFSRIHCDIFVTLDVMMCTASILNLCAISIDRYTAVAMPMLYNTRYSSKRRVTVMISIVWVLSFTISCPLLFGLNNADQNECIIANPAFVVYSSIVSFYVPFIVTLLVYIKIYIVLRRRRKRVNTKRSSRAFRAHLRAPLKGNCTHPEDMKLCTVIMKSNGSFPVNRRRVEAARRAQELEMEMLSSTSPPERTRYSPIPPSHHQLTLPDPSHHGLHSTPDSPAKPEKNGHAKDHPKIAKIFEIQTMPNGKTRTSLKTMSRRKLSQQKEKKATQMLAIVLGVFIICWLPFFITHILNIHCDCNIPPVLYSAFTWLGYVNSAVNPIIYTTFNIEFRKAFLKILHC
# Assay: HTS Assay for Allosteric Antagonists of the Human D2 Dopamine Receptor: Primary Screen for Antagonists; also: 0% is about no effect
# Conditions: HEK293 TREx D2 cells, calcium flux, dopamine EC80; at 10 µM; stronger effect = higher value
# Outline: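 Dopamine at EC80 is the agonist stimulus; test compounds precede it by 180 s. Calcium flux read kinetically in a force-coupled, inducible HEK293 T-REx D2 cell line.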
row,Structure (SMILES),inhibition
1,Cc1ccc(OCC(=O)Nc2nnc(SCc3cc(=O)n4cccc(C)c4n3)s2)cc1,7.53%
2,CC(C)c1ccc(NC(=O)c2cnc3sc(N4CCCC4)nn3c2=O)cc1,10.9%
3,CCOc1ccc(-c2nonc2NC(=O)c2ccco2)cc1OCC,-5.26%
4,CCOc1ccccc1CNC(=O)c1cc2c(=O)n(Cc3ccco3)ccc2nc1C,3.76%
5,COc1ccc(C(=O)COc2nc(C)cc(C)c2C#N)cc1,active: 34.9%
6,CCOC(=O)c1cc(-c2ccccc2)n(CC(=O)NCc2ccccc2)c1C,-0.101%
7,Cc1ccc(C)c(Cn2c(=O)n(CCCC(=O)NCCc3ccc(Cl)cc3)c(=O)c3ccccc32)c1,13.1%
8,O=c1c(Cc2ccc(F)cc2)c(O)ccn1Cc1ccc(Cl)cc1Cl,active: 44.2%
9,O=C(COc1ccc(Cl)cc1)NCC(c1cccs1)S(=O)(=O)c1ccc(F)cc1 (configuration not stated),25.8%
10,CC1=C(C(=O)N2CCN(c3ccc(Cl)cc3)CC2)C2(CCC(C)CC2)OC1=O (configuration not stated),21.7%
11,O=C(Cn1c(=O)n(Cc2ccccc2)c(=O)c2sc3ccccc3c21)Nc1ccc(F)cc1,3.09%
12,CCCCN(CC)CCCNC(=O)c1cc2c(=O)oc3ccc(C)cc3c2s1,-2.91%
13,CCOc1ccc(S(=O)(=O)NCc2nc3cccnc3n2Cc2ccccc2OC)cc1,-8.99%
14,CCOC(=O)C1CCN(C(=O)c2ccc3c(c2)sc2nc(-c4ccc(OC)cc4)cn23)CC1,-1.06%
15,CCCCNC(=O)CSc1nc2n[nH]c(C)c2c(=N)n1-c1cccc(C)c1,8.77%
16,CCCOc1ccc(-c2nc3ccc(Br)cc3c(=O)o2)cc1,-12.9%
17,Cc1nc2ccc(S(=O)(=O)NC(CC(C)C)C(=O)NCc3ccc(Cl)cc3)cc2s1 (configuration not stated),2.75%
18,CC(C)C(C)(C#N)NC(=O)CSc1ncnc2sc(-c3ccccc3)cc12 (configuration not stated),active: 31%
19,Cc1c(C(=O)OC2CCCCCC2)[nH]c2c1C(=O)CC(c1ccccc1)C2 (configuration not stated),2.18%
20,CCc1ccc(OC(=O)c2cccnc2)cc1,active: 32.1%
21,COc1ccc(C2=NC(C)(C)N(CC(=O)Nc3cc(OC)cc(OC)c3)C2=O)cc1,2.22%
22,CN(c1ccc(F)cc1)S(=O)(=O)N1CCCC(C(=O)NCCc2ccccc2)C1 (configuration not stated),-3.4%
23,CCN1CCN(c2cc(C)c3cc(NC(=O)/C=C/c4cccc(OC)c4OC)ccc3n2)CC1,2.98%
24,Cc1ccc(-c2cc3nccc(-c4cc([N+](=O)[O-])ccc4O)n3n2)cc1,-1.27%
25,CC(=O)NC(C)c1nc2ccccc2n1Cc1ccccc1Cl (configuration not stated),-0.292%
26,CCOC(=O)N1CCN(c2ncc3c(n2)CC(c2ccc(Cl)cc2)CC3=O)CC1 (configuration not stated),6.26%
27,COc1ccc(S(=O)(=O)N2CCC(N3CCN(c4ccccc4)CC3)CC2)cc1,active: 61.4%
